Out of some 110,000 compounds screened, about 230 (0.21%) showed an effect of 50% or more. The list shows a part of the results.
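Further: 30 min substrate incubation versus DMSO and 10 µM JCP410 controls.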

Sequence of DPAP1 (Q8IIJ9 whole entry, looked up): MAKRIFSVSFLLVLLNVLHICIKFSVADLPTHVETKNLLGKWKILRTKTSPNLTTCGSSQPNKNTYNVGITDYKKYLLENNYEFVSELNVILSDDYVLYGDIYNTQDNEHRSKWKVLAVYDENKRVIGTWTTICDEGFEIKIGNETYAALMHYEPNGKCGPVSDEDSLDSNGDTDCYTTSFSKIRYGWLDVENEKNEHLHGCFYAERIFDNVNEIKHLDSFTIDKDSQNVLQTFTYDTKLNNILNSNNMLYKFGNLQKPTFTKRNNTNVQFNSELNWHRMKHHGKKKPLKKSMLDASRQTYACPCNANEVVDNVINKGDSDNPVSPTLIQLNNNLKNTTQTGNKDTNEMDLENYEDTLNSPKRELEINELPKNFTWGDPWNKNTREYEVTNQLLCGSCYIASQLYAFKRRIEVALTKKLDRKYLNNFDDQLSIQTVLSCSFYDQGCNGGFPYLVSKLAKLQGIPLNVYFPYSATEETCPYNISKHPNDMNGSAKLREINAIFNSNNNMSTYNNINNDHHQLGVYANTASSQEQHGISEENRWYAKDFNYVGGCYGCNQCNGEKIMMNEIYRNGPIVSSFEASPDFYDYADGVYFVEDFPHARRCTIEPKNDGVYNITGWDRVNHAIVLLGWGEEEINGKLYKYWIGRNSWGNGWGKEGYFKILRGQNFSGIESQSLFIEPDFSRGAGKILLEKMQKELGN

The assay has as its target DPAP1 (Plasmodium falciparum, UniProt Q8IIJ9). As to the kind of experiment: primary screen, percent inhibition; read by cleavage of a fluorogenic dipeptide substrate; higher = more effect of the substance. Details: species or system P. falciparum D10 trophozoite lysates; single well.
Consider `O=C(Cc1ccccc1)N1CCN(C(=O)Cc2ccccc2)CC1`, for which the “% Inhibition @ 10 uM” value was -2.03%. Take `CC(C)C(=O)Nc1ccc2c(c1)C(=O)N(c1ccccc1)C2=O`: the “% Inhibition @ 10 uM” value is on record as -1.65%. Consider `CSc1nc2sc3c(c2c2nnc(S)n12)CCN(Cc1ccccc1)C3`, for which the “% Inhibition @ 10 uM” value turned out to be 1.72%. Under `Sc1nc(NCc2ccc3c(c2)OCO3)c2ccccc2n1` stands -2.56%. As for `CCOC(=O)c1c(N2C(=O)C3CC(C)=C(C)CC3C2=O)sc2c1CCCC2` (centres unmarked), the figure is 17%; as for `COc1ccc(C2C(C#N)=C(N)OC3=C2C(=O)CC(C)(C)C3)c(OC)c1OC` (centres unmarked), -7.09%; as for `CCOc1c(/C=C2/SC(=O)NC2=O)cccc1OC`, -6.41%. As for `COc1ccc(Cn2c(C(=O)O)c(CNC3CCC(C)CC3)c3ccccc32)cc1` (centres unmarked), the figure is 2%; as for `Clc1ccc(Cl)c(SCCc2ccncc2)c1`, 1.9%; as for `CCCOc1ccc(C(=O)Nc2ccc(N3CCN(C(=O)c4ccco4)CC3)cc2)cc1`, 1.84%. As for `Nc1c(C(=O)NCC(=O)O)sc2nc(-c3cccnc3)cc(C(F)(F)F)c12`, the “% Inhibition @ 10 uM” value is on record as 5.12%. For `Cc1ccc(N(C(=O)c2ccco2)C2C=CS(=O)(=O)C2)cc1` (centres unmarked), the “% Inhibition @ 10 uM” value was found to be 5.03%.

As for `Cc1ccc(CNC(=O)C2CCCN(c3nnc(-n4cccc4)s3)C2)o1` (centres unmarked), the “% Inhibition @ 10 uM” value is listed as -6.96%. As for `Cc1ccc(S(=O)(=O)N(C)CC(=O)Nc2ccc(C(N)=O)cc2)cc1`, the “% Inhibition @ 10 uM” value is 5.07%. Turning to `Cc1ccc(Cc2c(C)nc3c(C(=O)NC4CCCCC4C)cnn3c2C)cc1` (centres unmarked), the “% Inhibition @ 10 uM” value was 1.27%. Under `Cc1ccc(C#N)c(SCc2ccccc2F)n1` stands -0.268%; under `Cc1cc2c(n1-c1ccc(C(=O)NCc3cccnc3)cc1)CCCC2`, 6.3%; under `COc1ccc(CN(C(=O)COc2c(C)cc(C)cc2C)C2CCS(=O)(=O)C2)cc1OC` (centres unmarked), 1.92%. Under `O=C(NCC1NCCc2ccccc21)C1CCCCC1` (centres unmarked) stands -1.74%. As for `N#CC1=C(N)Oc2[nH]nc(-c3cccs3)c2C1c1cccs1` (centres unmarked), the figure is 2.32%; as for `COc1ccc(-c2onc(C)c2C)cc1S(=O)(=O)N1CCC(N2CCCCC2)CC1`, -1.52%. Regarding `COC(=O)C1=C(Cn2cncn2)NC(=O)NC1c1ccc(Cl)cc1` (centres unmarked), the “% Inhibition @ 10 uM” value is listed as -2.79%. Turning to `Cc1cc(N2C(=O)C3C4CCC(C4)C3C2=O)no1` (centres unmarked), the “% Inhibition @ 10 uM” value is on record as -1.2%. As for `COc1ccccc1CN(C(=O)Nc1cn(CC(C)C)c(=O)c2ccccc12)C1CCN(C)CC1`, the figure is 3.76%; as for `CCOc1ccc(N(CC(=O)N2CCc3ccccc3C2)S(=O)(=O)c2ccc(Cl)cc2)cc1`, 0.643%. Under `CC(C)=C1C2C=CC1C1C(=O)N(c3ccc(C)c(C)c3)C(=O)C21` (centres unmarked) stands -0.736%. For `CCOc1ccc2c(c1)nc(SCC(=O)c1ccccc1)n2C`, the “% Inhibition @ 10 uM” value is on record as 9.06%. Consider `O=C(NCc1cccnc1)[C@@H](c1ccccc1)N1Cc2ccccc2C1=O`, for which the “% Inhibition @ 10 uM” value is 2.93%. For `O=C(C(Sc1ccccc1)c1ccccc1)N1CCOCC1` (centres unmarked), the “% Inhibition @ 10 uM” value came out at 5.58%. Regarding `N#C/C(=C\c1ccc(Cl)cc1Cl)c1nc(-c2ccccc2)cs1`, the “% Inhibition @ 10 uM” value came to 1.13%. For `Cc1cc(C)c(C)c(S(=O)(=O)NCC(=O)N2CC(C)OC(C)C2)c1C` (centres unmarked), the “% Inhibition @ 10 uM” value is on record as -2.39%. As for `CC(C)(C)NC(=O)N1c2ccccc2Sc2ccccc21`, the figure is -7.34%; as for `O=C(O)CCCC(=O)Nc1cccc2ccccc12`, -1.86%. As for `CCCN(CCC)CCNC(=O)c1nc(-c2cccc(F)c2)n2c1CCCCC2`, the figure is -7.18%. Take `COCCN1C(=O)c2[nH]nc(-c3ccccc3O)c2C1c1ccc(OC)cc1` (centres unmarked): the “% Inhibition @ 10 uM” value is given as -3.12%. As to `CCCSCCCNC(=O)C1CCN(c2nn3c(=O)cc(C)nc3s2)CC1`, the “% Inhibition @ 10 uM” value came out at 7.53%. Under `O=C(C1=C(O)C(=O)N(CC2CCCO2)C1c1ccc(F)cc1)c1ccc(Br)cc1` (centres unmarked) stands -1.45%. As for `C#CCSc1nc2c(c(=O)n1-c1ccccc1)C1(CCCCC1)Cc1ccccc1-2`, the figure is -7.15%; as for `CC(Nc1ccc([N+](=O)[O-])c2cccnc12)C12C[C@H]3C[C@@H](C1)C[C@@H](C2)C3` (some centres unmarked), 2%.

Take `O=C(Nc1nnc(C23CC4CC(CC(C4)C2)C3)s1)c1cccs1`: the “% Inhibition @ 10 uM” value amounted to 3.25%. As for `Cc1ccc2nc3nc(C)cc(C)c3c(N)c2c1`, the figure is -2.26%; as for `CC(=O)c1c(CN(C)C23CC4CC(CC(C4)C2)C3)nc2n(C)c3ccccc3n12`, -2.81%; as for `COC(=O)C1=CN(CC23CC4CC(CC(C4)C2)C3)C=C(C(=O)OC)C1c1cccc(OC)c1OC`, -2.5%.

`O=C(NCc1noc2ccccc12)N1CCC2(CC1)OCCO2`: the “% Inhibition @ 10 uM” value came out at 1.41%. Under `CCc1nn2c(=O)cc(CSc3nc4sc5c(c4c(=O)n3C)CCCC5)nc2s1` stands 39.1%.

As for `N#Cc1c(N)nc2c(c1-c1ccccc1Cl)CCC2`, the “% Inhibition @ 10 uM” value is recorded as 1.38%. Under `CC(C)c1ccc(NC(=O)c2ccc(Cl)c([N+](=O)[O-])c2)cc1` stands -1.92%.

Turning to `O=C(NCc1cccnc1)c1ccccc1C(=O)c1ncc[nH]1`, the “% Inhibition @ 10 uM” value was 3.65%.

On to `CCCCCCOc1ccc(NC(=O)c2c(O)c3ccccc3n(C)c2=O)cc1`, for which the “% Inhibition @ 10 uM” value is -0.413%. As to `Cc1cccc(CN2CCN(c3ncccn3)CC2)c1`, the “% Inhibition @ 10 uM” value is -8.28%.

Consider `COc1ccccc1-c1coc2cc(OCC(=O)O)ccc2c1=O`, for which the “% Inhibition @ 10 uM” value is given as -1.92%. In the case of `Cc1cc(/C=C2\NC(=S)NC2=O)c(C)n1-c1ccc(N(C)C)cc1`, the “% Inhibition @ 10 uM” value is reported as -1.2%. Take `COc1ccc(-c2cc(C(N)=O)c3ccccc3n2)cc1`: the “% Inhibition @ 10 uM” value is -3.06%.

On to `CCC(=O)N1c2ccccc2N=C2CC(C)(C)CC(O)=C2C1c1cccc(OC)c1` (centres unmarked), for which the “% Inhibition @ 10 uM” value was 2.38%.

Take `Cc1nc2ccc(S(=O)(=O)N(C)CC(=O)N3CCc4ccccc4C3)cc2s1`: the “% Inhibition @ 10 uM” value is -2.25%.

Turning to `COc1cc(C2C(C#N)=C(N)N(c3c(F)cccc3F)C3=C2C(=O)CC(C)(C)C3)ccc1O` (centres unmarked), the “% Inhibition @ 10 uM” value is 3.46%. As for `O=C(NCc1ccccc1)c1ccccc1-c1nc2ccccc2[nH]1`, the figure is 4.38%. With `CCCn1c(=O)c2sccc2n2c(CCCC(=O)NCCc3ccccc3)nnc12`, the “% Inhibition @ 10 uM” value was -8.11%. `CCn1c(CSc2nc3ccccc3s2)nc2ccccc21`: the “% Inhibition @ 10 uM” value was determined as 0.484%. Under `CCCOc1ccc(C(=O)C2=C(O)C(=O)N(CCCN(C)C)C2c2ccc(OC)c(OC)c2)c(C)c1` (centres unmarked) stands 1.52%.

For the compound `C=CCn1c(SCC(=O)Nc2nccs2)nc2sc(CC)cc2c1=O`, the “% Inhibition @ 10 uM” value is -1.84%. Under `CCN(CC)CCNCc1nc2ccccc2c(=O)n1-c1ccc(F)cc1` stands 3.58%. Under `CCCc1nc2nc(C)c(NS(=O)(=O)c3ccc(C)cc3C)c(O)n2n1` stands 0.454%; under `Cc1ccc([N+]2=C3CCCCCN3CC2(O)c2ccccc2)cc1` (centres unmarked), -1.84%. Under `CN(C)CCCN(CCCN(C)C)Cc1cccc2ccccc12` stands -5.65%; under `COc1ccc(-c2ccc(/C=C3/SC(=O)NC3=O)o2)cc1Cl`, 13%. In the case of `Cc1ccc(/C=C(\NC(=O)c2ccccc2)C(=O)NC2CCN(Cc3ccccc3)CC2)o1`, the “% Inhibition @ 10 uM” value was found to be 4.33%. For `C=Cc1ccc(Cn2c(C)c(CNCCc3ccc(OC)c(OC)c3)c(C(=O)O)c2C)cc1`, the “% Inhibition @ 10 uM” value is listed as 8.86%. Consider `Cc1cccc(OCCSc2nc(C)cc(O)n2)c1`, for which the “% Inhibition @ 10 uM” value is on record as 1.7%. As for `OC(CN1CCOCC1)Cn1ccc2ccccc21` (centres unmarked), the figure is -3.53%; as for `CCCNC(=O)c1cc(S(=O)(=O)N2CCCCC2)c[nH]1`, -6.25%. As for `c1ccc(C2=C(c3ccccc3)N3CCN=C3S2)cc1`, the figure is 23.4%. As for `O=C(CCc1nnc2n(Cc3ccccc3Cl)c(=O)c3ccccc3n12)NCc1ccccn1`, the figure is 0.981%. Turning to `Cc1nn(C)c(Cl)c1/C=C/C(=O)N[C@@H](CC(C)C)C(=O)NCC#N`, the “% Inhibition @ 10 uM” value is recorded as -3.14%.

Take `O=C(Cn1ncc2c1-c1ccccc1OC2)Nc1cccnc1`: the “% Inhibition @ 10 uM” value is given as -6.3%. Regarding `COc1ccc(OCc2nc(C#N)c(NC(C)c3ccccc3)o2)cc1` (centres unmarked), the “% Inhibition @ 10 uM” value is listed as -0.99%.

Turning to `Cc1ccccc1/C=C1/SC(Nc2ccccc2O)=NC1=O`, the “% Inhibition @ 10 uM” value is -5.7%. As for `CCCN1C/C(=C\c2ccc(OC)cc2)C(=O)/C(=C/c2ccc(OC)cc2)C1`, the figure is 23%; as for `Clc1ccc(-n2ncc3c(N4CCN(Cc5ccccc5)CC4)ncnc32)cc1`, 8.36%. Under `CC(C)(C)c1ccc(OCC(=O)Nc2nccs2)cc1` stands 0.709%; under `Oc1ccc(Nc2nc(-c3ccncc3)cs2)cc1`, 0.0538%; under `O=C(NC1CCCC1)c1cccc(S(=O)(=O)NC2CCCC2)c1`, -3.72%.

For `CC(C(=O)c1ccccc1)C1(O)C(=O)N(C)c2ccccc21` (centres unmarked), the “% Inhibition @ 10 uM” value is -1.98%. As for `O=C(c1ccc(-n2ccc3ccccc32)s1)N1CCC(C(=O)N2CCC3(CC2)OCCO3)CC1`, the figure is 4.27%. Turning to `COc1ccc(OCC(O)CNC2CC(C)(C)NC(C)(C)C2)cc1` (centres unmarked), the “% Inhibition @ 10 uM” value was -2.75%. Under `CCOC(=O)N1CCC(NC(=O)c2ccc(CNS(=O)(=O)c3ccc(F)cc3)cc2)CC1` stands -0.256%. On to `COc1ccc(-c2cc(O)oc3nnc(C)c2-3)cc1`, for which the “% Inhibition @ 10 uM” value worked out at 0.503%.

Consider `COc1ccccc1Nc1nc(Cl)nc(C)c1[N+](=O)[O-]`, for which the “% Inhibition @ 10 uM” value is -4.21%. Under `COc1ccc(C2c3c(oc4ccc(C)cc4c3=O)C(=O)N2Cc2ccc3c(c2)OCO3)cc1OC` (centres unmarked) stands -3.13%; under `CCCCn1c(SCc2nc(N)nc(N3CCOCC3)n2)nc2c1c(=O)n(C)c(=O)n2C`, 11.2%.

As to `COc1ccc(N(CC(=O)N2CCOCC2)S(=O)(=O)c2ccc(C)cc2)c(OC)c1`, the “% Inhibition @ 10 uM” value is on record as -1.2%. For the compound `Oc1cccc(CN2CCSCC2)c1`, the “% Inhibition @ 10 uM” value is -0.192%. Under `Cc1[nH]cnc1CN1CCc2ccccc2C1` stands 1.74%; under `CCn1ncc(Br)c1C(=O)Nc1sc2c(c1C(N)=O)CCCC2`, -6.79%.

Take `Cc1ccc2c(Sc3ccccc3)c(C(=O)O)[nH]c2c1`: the “% Inhibition @ 10 uM” value is on record as 3.24%. On to `CNC(=O)CN(c1cccc(OC)c1)S(=O)(=O)c1ccc(C)cc1`, for which the “% Inhibition @ 10 uM” value amounted to 2.45%. As for `CCOc1cc(/C=C2/NC(=O)N(Cc3ccccc3F)C2=O)c(Br)cc1O`, the figure is 3.27%; as for `CCCCn1c(CNC(=O)Cc2ccccc2)nc2ccccc21`, -4.86%.

The values above are taken from publication PMC6919601, “Identification of Plasmodium dipeptidyl aminopeptidase allosteric inhibitors by high throughput screening” (PLoS ONE, 2019).
